This is one part of the list.
test system: S. aureus RN4220; experiment: growth inhibition call (relative growth <= 0.2); settings: 50 µM

Growth inhibition call, inactive:
C[C@@H]1CN([C@H](C)CO)C(=O)c2cc(C#Cc3ccccc3)cnc2O[C@@H]1CN(C)C(=O)CCN1CCCCC1, C[C@@H]1CN([C@@H](C)CO)C(=O)c2cccc(NS(=O)(=O)c3ccc(F)cc3)c2O[C@@H]1CN(C)Cc1ccc(Cl)c(Cl)c1, CCCCCNC(=N)NN=Cc1c[nH]c2ccc(OC)cc12.O=C(O)C=CC(=O)O, C[C@@H]1CN([C@@H](C)CO)C(=O)c2cc(NS(=O)(=O)c3ccc(F)cc3)ccc2O[C@@H]1CN(C)Cc1ccc(Cl)c(Cl)c1, COc1ccc(NC(=O)Nc2ccc3c(c2)[C@H]2C[C@H](CC(=O)NCc4ccccn4)O[C@H](CO)[C@H]2O3)cc1, C[C@H]1CN([C@@H](C)CO)C(=O)c2cccc(NC(=O)Nc3ccc(F)cc3)c2O[C@H]1CN(C)S(C)(=O)=O, CSc1nn(C)c2cnn(C)c(=O)c12, CCC1C(=O)OCC1Cc1cncn1C.O=[N+]([O-])O (stereo not drawn), CCOC(=O)N(C)C[C@H]1OCc2cn(nn2)CCCC(=O)N([C@H](C)CO)C[C@@H]1C, CO[C@H]1CN(C)C(=O)c2cc(NC(=O)Nc3ccccc3F)ccc2OC[C@H](C)N(CCC(F)(F)F)C[C@@H]1C, Cc1cccc2sc(NC(=O)c3ccc(C(C)(C)C)cc3)nc12, CCCC#Cc1ccc2c(c1)O[C@H](CN(C)Cc1ccc3c(c1)OCO3)[C@@H](C)CN([C@H](C)CO)S2(=O)=O, C[C@@H]1CN([C@@H](C)CO)S(=O)(=O)c2ccc(C#Cc3cccc(F)c3)cc2O[C@H]1CN(C)S(=O)(=O)c1cn(C)cn1

Source: the antibiotic and cytotoxicity screens of Wong et al. (2023)
